± gives the standard deviation. Only a part is listed here, and it is no random draw.
test system: MIWI (PIWIL1) piRISC loaded with L1MC piRNA (30 nt); assay: pre-steady-state target cleavage rate (min^-1); MIWI and MILI are mouse PIWI proteins and EfPiwi is from a freshwater sponge; tags in brackets are library labels; higher = faster piRNA-guided slicing of the target; conditions: guide: L1MC piRNA 5'p-UAACUAAAUACUAUGCAAGCUGUAGGUCCU; auxiliary factor: none (no GTSF1)
Procedure, shortened: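 For Cleave-'n-Seq, a transcribed, DNA-blocked target RNA library […] met 1 nM active affinity-purified piRISC with one synthetic guide at 33 °C for 0–8 or 0–960 min in HEPES–potassium acetate buffer, with or without 500 nM GTSF1 partner protein. Uncleaved targets were sequenced and normalised to depth and weakly complementary targets, with three trials pooled and k3 capped at 0.0001 min^-1. A burst-and-steady-state fit supplied the pre-steady-state cleavage rate.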
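Also: 1 nM active piRISC with 0.1 nM target library at 33 °C single turnover.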

Sequence	pre-steady-state target cleavage rate
UUGACCUACAGCUUGCAUAGUAUUUAGUUA	0.0724 ± 0.012
UCCUGGAACAGCUUGGAUAGUAUUAAGUUA	0.0159 ± 0.0041
UGGACCUACAGCUUGCAUAGUAUUAUAGUUA	0.052 ± 0.011
UGCACCUACACCUUGCAUAGUAUUUAGUUA	0.0415 ± 0.0067
AGGACCUACAGCUUGGAUAGUAUUAAGUUA	0.0226 ± 0.004
UCCUGGUACUGCUUGCAUAGUAUUUUGUUA	0.0218 ± 0.0062
UCCUGGAACAGCUUGCAUAGUCUUUAGUUA	0.0545 ± 0.013
UCCUCCUACAGCUUGCAUUGUUUUUAGUUA	0.00646 ± 0.0013
UCCUCCUACAGCUUGCAUAGAAUAUAGUUA	0.00715 ± 0.0024
UCCACCUUCAGCUUGCUUAGUAUUUAGUUA	0.0231 ± 0.005
UCCUGCUACAGCUUGCAUAGAAUUUUGUUA	0.00926 ± 0.0027
UCCACCAACAGCUUGCAUUGUAUUUAGUUA	0.028 ± 0.0067
UCCUGGAUGUGGUUGCAUAGUAUUUACUUA	0.00537 ± 0.0033
UCCUGGAUGAGCUUGCAUAGUAUUGAGUUA	0.0263 ± 0.0075
AGGACCUACAGGUUGGAUAGUAUUUAGUUA	0.0408 ± 0.0067
UGGACCUACAGCUUGCAUACUAUAUAGUUA	0.0155 ± 0.004
UCCUGCUACAGCUUGCAUAGUAUUUAGGUA	0.0162 ± 0.0038
UCCUCCUACAGCUAGCAUAGUAUUUAGAUA	0.00473 ± 0.0022
UCCUCCUACAGCUUGCCUAGUAUUUAGUUA	0.0224 ± 0.004
AGGUCCUACAGCUUGGAUAGUAUUUAGUUA	0.079 ± 0.014

Sequence	pre-steady-state target cleavage rate
UCCACCUACAGCUUGCAAAGUAUUUACAAA	0.00369 ± 0.0027
UCCUGGAUCAGCUUGCAUUCUAUUUAGUUA	0.00824 ± 0.0038
UCCUGCUACAGCUUGCAUAGUAUUUAGAUUA	0.0132 ± 0.0031
UCCUGGUACAGCUUGCAUAGUAUUAAGAUA	0.00342 ± 0.0022
UCCUGGAACUGCUUGCAUAGUAUAUAGUUA	0.0165 ± 0.0056
UCCUGGAACAGCUUGCAUAGUUUUUAGUUA	0.0449 ± 0.0097
UCCUGGUACACCUUGCAUAGUAUUUACUUA	0.00921 ± 0.0038
AGGACCUACAGCUUCCAUAGUAUUUAGUUA	0.00787 ± 0.0039
UCCUGGAUGUGCUUGCAUAGUAUUUAAUUA	0.021 ± 0.0066
UCCUGGAUGACCUUGCAUAGUAAUUAGUUA	0.00375 ± 0.0029
UCCUGGUACAGCUCUGCAUAGUAUUUAGUUA	0.0202 ± 0.0059
UCCACCUACAGCUUGGUUAGUAUUUAGUAA	0.00379 ± 0.0021
UCCUGGAUGUGCUUGCAUAGUAUUUAGAUUA	0.0149 ± 0.0038
UCGACCUACAGCUUGCAUAGUAUUUCAGUUA	0.0311 ± 0.0095
UGGACCUACAGCAAGCAUAGUAUUUAGUAA	0.0053 ± 0.0019
UCCUGGAUGAGCAUGCAUAGUAUUAAGUUA	0.00778 ± 0.003
UCCUGCUACACUUGCAUAGUAUUUAGUUA	0.0281 ± 0.0054
UCCUGGUACAGCUUGCAUACUAUUUUGUUA	0.0132 ± 0.005
UCCUCGAUCAGCUUGCAUAGUAUUUUCAAA	0.00426 ± 0.0022
UCGACCUACAGCUUGCAUAGUUUUUAGUAA	0.0281 ± 0.0079
